This is an account of results in the supplement of paper PMC9135407.

The subject of the assay is primary human hepatic stellate cells (donor 1). Briefly: scaled lipid accumulation score (0 = DMSO-like, 1 = nortriptyline-like); higher = stronger HSC inactivation (lipid re-accumulation), active = hit call of the paper. To be noted: 48 h.
[1] abbreviates: library stock concentration: 10 mM.
Where [2] appears, read: library stock concentration: 3.33 mM.
[3] abbreviates: library stock concentration: 400 uM.
[4] abbreviates: library stock concentration: 2 mM.
Setting [5] is: library stock concentration: 4.9 mM.
The mark [6] stands for this setting: library stock concentration: 1 mM.

“And” between values parts separate entries of the source, which are not always exact repeats. Equal entries are not always repeated. Structures can show the parent of a compound that is named as a salt. The whole screen tested about 5,800 compounds, of which about 620 (11%) showed activity.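 Rule for the calls: active = score above a cut-off or among the top three wells of a plate; in these data no inactive exceeds 0.85.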 Only a part is listed here, and it is no random draw.

`CN1CCOC(c2ccccc2)c2ccccc2C1` (centres undefined) [Nefopam hydrochloride]: the “scaled lipid accumulation score” value was inactive: 0.521.
Consider `CN1CCOC(c2ccccc2)c2ccccc2C1` (centres undefined) [Nefopam], for which the “scaled lipid accumulation score” value runs as follows: (library stock concentration: 7.9 mM) inactive: 0.53; under setting [1], inactive: 0.244.
Consider `COC(=O)c1ccc2c(c1)NC(=O)C2=C(Nc1ccc(N(C)C(=O)CN2CCN(C)CC2)cc1)c1ccccc1` [Nintedanib (BIBF 1120)], for which the “scaled lipid accumulation score” value was active: 1.2 under setting [2] and active: 1.33 under setting [1].
Regarding `N=C(N)NCCCCN` [Agmatine sulfate], the “scaled lipid accumulation score” value under setting [1] was inactive: ≤ 0 and inactive: 0.044.
On to `CNCCC[C@]12CC[C@H](c3ccccc31)c1ccccc12` [Maprotiline HCl], for which, for the setting “library stock concentration: 7.2 mM”, the “scaled lipid accumulation score” value was active: 1.22.
For `CCc1cc(-c2n[nH]c(C)c2-c2ccc3c(c2)OCCO3)c(O)cc1O`, the “scaled lipid accumulation score” value under setting [1] was inactive: ≤ -0.001.
Turning to `CN1CCC(=C2c3ccccc3CCc3sccc32)CC1` [Pizotyline malate], under “library stock concentration: 4.7 mM”, the “scaled lipid accumulation score” value was inactive: 0.792.
Take `CN1CCC(=C2c3ccccc3CCc3sccc32)CC1` [Pizotifen Malate]: the “scaled lipid accumulation score” value under setting [2] is inactive: 0.473.
As for `CN1CCC(=C2c3ccccc3CCc3sccc32)CC1` [Pizotifen malate], the “scaled lipid accumulation score” value is inactive: 0.782.
Turning to `COc1ncc(-c2ccc3nccc(-c4ccnnc4)c3c2)cc1NS(=O)(=O)c1ccc(F)cc1F`, the “scaled lipid accumulation score” value is inactive: ≤ -0.009 (library stock concentration: 80 uM); inactive: ≤ -0.009 under setting [3]; inactive: ≤ -0.009 under setting [4]; inactive: 0.066 under setting [2]; inactive: 0.479 and inactive: 0.24 under setting [1].
As to `CCN(CC)CCOc1ccc(C(=C(Cl)c2ccccc2)c2ccccc2)cc1` [Clomiphene citrate], the “scaled lipid accumulation score” value runs as follows: under setting [5], inactive: 0.705; under setting [1], inactive: ≤ 0.
As for `CCN(CC)CCOc1ccc(C(=C(Cl)c2ccccc2)c2ccccc2)cc1` [Clomifene citrate], the “scaled lipid accumulation score” value under setting [2] was inactive: 0.72.
For the compound `Cl.Cl.NC1(c2ccc(-c3nc4ccn5c(=O)[nH]nc5c4cc3-c3ccccc3)cc2)CCC1`, the “scaled lipid accumulation score” value is active: 1.07 under setting [3] and active: 1.23 under setting [4].
`C[C@@H](CN1CCC(n2c(=O)[nH]c3cc(Cl)ccc32)CC1)NC(=O)c1ccc2ccccc2c1.Cl`: under setting [1], the “scaled lipid accumulation score” value is active: 1.12.
`CN(C)[C@@H]1C(O)=C(C(=O)NCNCCCC[C@H](N)C(=O)O)C(=O)[C@@]2(O)C(O)=C3C(=O)c4c(O)cccc4[C@@](C)(O)[C@H]3C[C@@H]12` [Lymecycline]: the “scaled lipid accumulation score” value is inactive: 0.003.
Turning to `CCCCNc1ccc(C(=O)OCCN(C)C)cc1` [Tetracaine hydrochloride], the “scaled lipid accumulation score” value (library stock concentration: 6.6 mM) is inactive: 0.296; the “scaled lipid accumulation score” value under setting [1] is inactive: 0.379 and inactive: 0.168.
For the compound `CCCCNc1ccc(C(=O)OCCN(C)C)cc1` [Tetracaine HCl], the “scaled lipid accumulation score” value reads like this: under setting [2], inactive: 0.052; under setting [1], inactive: 0.475.
As for `O=C(Nc1ccc(-c2ccnc(Nc3ccc(N4CCOCC4)cc3)n2)cc1)[C@@H]1CCCN1`, the “scaled lipid accumulation score” value under setting [1] is active: 1.06.
Same read-out and setting: the value for `COc1ccc(NC(=O)c2ccc(-c3ccc(-c4noc(C)n4)cc3C)cc2)cc1N1CCN(C)CC1` was inactive: 0.278 and inactive: 0.753.
As to `COc1ccc2cc(-c3nc(-c4ccc([S+](C)[O-])cc4)[nH]c3-c3ccncc3)ccc2c1` (centres undefined) [Tie2 kinase inhibitor], the “scaled lipid accumulation score” value is inactive: 0.024 under setting [2] and inactive: ≤ 0 under setting [1].
For the compound `CCCCCOC(=O)Nc1nc(=O)n([C@@H]2O[C@H](C)[C@@H](O)[C@H]2O)cc1F`, the “scaled lipid accumulation score” value under setting [1] is inactive: ≤ 0.
Consider `CCCCCOC(=O)Nc1nc(=O)n([C@@H]2O[C@H](C)[C@@H](O)[C@H]2O)cc1F` [Capecitabine], for which the “scaled lipid accumulation score” value is inactive: ≤ 0 under setting [2] and inactive: ≤ 0 under setting [1].
Take `CN(C)CCOC(c1ccc(Cl)cc1)c1ccccn1` (centres undefined) [Carbinoxamine Maleate]: the “scaled lipid accumulation score” value under setting [1] was inactive: 0.55.
Consider `CN(C)CCOC(c1ccc(Cl)cc1)c1ccccn1` (centres undefined) [Carbinoxamine maleate], for which the “scaled lipid accumulation score” value runs as follows: under setting [5], inactive: 0.198; under setting [1], inactive: ≤ 0.
Consider `CN(C)CCOC(c1ccc(Cl)cc1)c1ccccn1` (centres undefined) [Carbinoxamine maleate salt], for which the “scaled lipid accumulation score” value was inactive: 0.192.
As to `Cc1cc(NC(=O)c2cccc(NC(=O)C=CCN(C)C)c2)ccc1Nc1nccc(-c2cccnc2)n1`, the “scaled lipid accumulation score” value reads like this: under setting [2], active: 1.08; under setting [1], active: 1.02.
Regarding `CCCCCCCC/C=C\CCCCCCCC(=O)OC[C@H](CO)OC(=O)CCCCCCC/C=C\CCCCCCCC` [1,2-Dioleoyl-sn-glycerol], the “scaled lipid accumulation score” value under setting [6] is inactive: ≤ 0.
On to `CCCCCCCCCCCCCCCC(=O)C(F)(F)F` [Palmityl Trifluoromethyl Ketone], for which the “scaled lipid accumulation score” value under setting [6] was inactive: ≤ 0.
In the case of `CCCCCCCCCCCCCCCC(=O)C(F)(F)F`, the “scaled lipid accumulation score” value under setting [1] was inactive: 0.032.
With `NC(=O)NC1NC(=O)NC1=O` (centres undefined) [Allantoin], the “scaled lipid accumulation score” value is inactive: 0.178. Moreover, the “scaled lipid accumulation score” value under setting [1] is inactive: ≤ 0. Further, where the note is “library stock concentration: 12.6 mM”, the “scaled lipid accumulation score” value was inactive: ≤ 0.
Consider `Clc1ccc2c(c1)C(N1CCNCC1)=Nc1ccccc1O2` [Amoxapine], for which the “scaled lipid accumulation score” value (library stock concentration: 6.4 mM) is active: 0.886.
In the case of `CCCCC[C@H](O)/C=C/[C@@H]1[C@@H](C/C=C/CCCC(=O)O)[C@@H](O)C[C@H]1O` [5-trans Prostaglandin F2.alpha.], the “scaled lipid accumulation score” value under setting [6] was inactive: ≤ 0.
Regarding `CCCCC[C@H](O)/C=C/[C@@H]1[C@@H](C/C=C/CCCC(=O)O)[C@@H](O)C[C@H]1O` [5-trans Prostaglandin F2.alpha. (tromethamine salt)], under setting [6], the “scaled lipid accumulation score” value was inactive: ≤ 0.
Regarding `CCCCCCCCCCCC1=C(O)C(=O)C=C(O)C1=O` [Embelin], the “scaled lipid accumulation score” value is inactive: ≤ 0 under setting [2]; inactive: 0.153 and inactive: 0.039 and inactive: ≤ -0.001 under setting [1].
`COc1cc(C(=O)OCCC[NH+]2CCC[NH+](CCCOC(=O)c3cc(OC)c(OC)c(OC)c3)CC2)cc(OC)c1OC.[Cl-].[Cl-]` [Dilazep hydrochloride]: the “scaled lipid accumulation score” value under setting [1] was active: 0.951.
Turning to `COc1c2ccoc2cc2oc(=O)ccc12` [Bergapten], the “scaled lipid accumulation score” value by setting is: under setting [2], inactive: ≤ 0; under setting [1], inactive: ≤ -0.001 and inactive: 0.018.
Turning to `Cc1ncc2ccccc2c1C#N` [4-Cyano-3-methylisoquinoline], the “scaled lipid accumulation score” value under setting [2] is inactive: ≤ 0.
On to `NCCNS(=O)(=O)c1cccc2c(Cl)cccc12` [A3 hydrochloride], for which the “scaled lipid accumulation score” value under setting [1] is inactive: ≤ 0.
For `CC(C)NCC(O)c1ccc(O)c(O)c1` (single isomer, unassigned; (-)) [(-)-Isoproterenol hydrochloride], the “scaled lipid accumulation score” value is inactive: ≤ 0. The “scaled lipid accumulation score” value under setting [1] is inactive: ≤ -0.055.
Turning to `CC(C)NCC(O)c1ccc(O)c(O)c1` (single isomer, unassigned; (-)) [S(+)-Isoproterenol (+)-bitartrate], the “scaled lipid accumulation score” value under setting [1] is inactive: ≤ -0.055.
Regarding `CC(C)NCC(O)c1ccc(O)c(O)c1` (single isomer, unassigned; (-)) [(?)-Isoproterenol hydrochloride], the “scaled lipid accumulation score” value under setting [1] was inactive: 0.01.
Regarding `CC(C)NCC(O)c1ccc(O)c(O)c1` (single isomer, unassigned; (-)) [R(-)-Isoproterenol (+)-bitartrate], the “scaled lipid accumulation score” value under setting [1] is inactive: ≤ -0.056.
In the case of `CC(C)NCC(O)c1ccc(O)c(O)c1` (single isomer, unassigned; (-)) [Isoproterenol hydrochloride], the “scaled lipid accumulation score” value (library stock concentration: 8.1 mM) is inactive: 0.008; the “scaled lipid accumulation score” value under setting [1] was inactive: ≤ 0 and inactive: ≤ -0.006.
As for `CC(C)NCC(O)c1ccc(O)c(O)c1` (single isomer, unassigned; (-)) [Isoprenaline HCl], the “scaled lipid accumulation score” value is inactive: 0.036 under setting [2] and inactive: ≤ 0 under setting [1].
As for `CC(C)NCC(O)c1ccc(O)c(O)c1` (single isomer, unassigned; (-)), the “scaled lipid accumulation score” value under setting [1] was inactive: ≤ 0.
Regarding `O=C1C(O)=C([C@H]2CC[C@H](c3ccc(Cl)cc3)CC2)C(=O)c2ccccc21` [Atovaquone], the “scaled lipid accumulation score” value is inactive: 0.086. Also, the “scaled lipid accumulation score” value under setting [1] was inactive: ≤ -0.027.
Take `Cc1ccccc1C(OCCN(C)C)c1ccccc1` (centres undefined) [Orphenadrine Citrate]: the “scaled lipid accumulation score” value is, setting by setting: under setting [2], inactive: 0.282; under setting [1], inactive: 0.671.
For the compound `Cc1ccccc1C(OCCN(C)C)c1ccccc1` (centres undefined) [Orphenadrine citrate], the “scaled lipid accumulation score” value under setting [1] was inactive: 0.402.
On to `Cc1ccccc1C(OCCN(C)C)c1ccccc1` (centres undefined) [Orphenadrine hydrochloride], for which the “scaled lipid accumulation score” value was inactive: 0.404. The “scaled lipid accumulation score” value under setting [1] is inactive: 0.526.
Consider `Cc1ccccc1C(OCCN(C)C)c1ccccc1` (centres undefined) [Norflex], for which the “scaled lipid accumulation score” value under setting [1] was inactive: 0.726.
In the case of `Cc1ccccc1C(OCCN(C)C)c1ccccc1` (centres undefined) [Disipal], the “scaled lipid accumulation score” value under setting [1] is inactive: 0.676.
Take `Cc1cncc2cccc(S(=O)(=O)N3CCCN(C(=O)CN)C[C@@H]3C)c12` [Rho Kinase Inhibitor IV]: the “scaled lipid accumulation score” value under setting [2] was inactive: ≤ 0.
`Clc1ccc2c(c1)CCc1cccnc1C2=C1CCNCC1`: the “scaled lipid accumulation score” value under setting [1] was active: 1.52.
On to `Cc1nc(C#Cc2ccnc(Cl)c2)c(C)n1-c1ccc(OC(F)(F)F)cc1`, for which the “scaled lipid accumulation score” value was inactive: ≤ 0 under setting [2] and inactive: ≤ 0 under setting [1].
Regarding `COC(=O)C1=C(C)NC(C)=C(C(=O)OCCN(C)Cc2ccccc2)C1c1cccc([N+](=O)[O-])c1` (centres undefined) [Cardene], under setting [1], the “scaled lipid accumulation score” value was inactive: 0.429.
In the case of `COC(=O)C1=C(C)NC(C)=C(C(=O)OCCN(C)Cc2ccccc2)C1c1cccc([N+](=O)[O-])c1` (centres undefined), under “library stock concentration: 9.7 mM”, the “scaled lipid accumulation score” value is inactive: 0.511.
Turning to `COC(=O)C1=C(C)NC(C)=C(C(=O)OCCN(C)Cc2ccccc2)C1c1cccc([N+](=O)[O-])c1` (centres undefined) [Nicardipine HCl], the “scaled lipid accumulation score” value is inactive: ≤ 0 under setting [2] and inactive: 0.63 under setting [1].
Take `COC(=O)C1=C(C)NC(C)=C(C(=O)OCCN(C)Cc2ccccc2)C1c1cccc([N+](=O)[O-])c1` (centres undefined) [Nicardipine hydrochloride]: the “scaled lipid accumulation score” value was inactive: 0.253. Besides, the “scaled lipid accumulation score” value under setting [1] is inactive: 0.101 and inactive: 0.346.
Take `OC[C@H]1O[C@@H](c2ccc(Cl)c(Cc3ccc(O[C@H]4CCOC4)cc3)c2)[C@H](O)[C@@H](O)[C@@H]1O`: the “scaled lipid accumulation score” value reads like this: under setting [2], inactive: ≤ -0.009; under setting [1], inactive: 0.021.
On to `CN1CCN(c2c(F)cc3c(=O)c(C(=O)O)cn4c3c2SCC4)CC1`, for which the “scaled lipid accumulation score” value under setting [1] was inactive: ≤ 0.
As to `CC(=O)N1CCN(C)CC1` [1-Acetyl-4-methylpiperazine hydrochloride], the “scaled lipid accumulation score” value under setting [1] was inactive: 0.045.
